In article PMC5343488, “Epilepsy and intellectual disability linked protein Shrm4 interaction with GABABRs shapes inhibitory neurotransmission” (Nature Communications, 2017):
Changes are numbered by the printed parent chain. These are yes or no findings as the source states them, for the method shown. In cells and extracts the contact can be indirect. Some entries that bind do so weakly or less than the wild type. For some assays here: Tags and fused reporters may be left off the sequences shown.

By UniProt entry, the sequences of proteins in these tests, tags left out. Where a name states a change or a piece, a line headed by the entry shows the natural chain unless it says otherwise. Residues count along the entry.
UniProt P18508, residues 39-466: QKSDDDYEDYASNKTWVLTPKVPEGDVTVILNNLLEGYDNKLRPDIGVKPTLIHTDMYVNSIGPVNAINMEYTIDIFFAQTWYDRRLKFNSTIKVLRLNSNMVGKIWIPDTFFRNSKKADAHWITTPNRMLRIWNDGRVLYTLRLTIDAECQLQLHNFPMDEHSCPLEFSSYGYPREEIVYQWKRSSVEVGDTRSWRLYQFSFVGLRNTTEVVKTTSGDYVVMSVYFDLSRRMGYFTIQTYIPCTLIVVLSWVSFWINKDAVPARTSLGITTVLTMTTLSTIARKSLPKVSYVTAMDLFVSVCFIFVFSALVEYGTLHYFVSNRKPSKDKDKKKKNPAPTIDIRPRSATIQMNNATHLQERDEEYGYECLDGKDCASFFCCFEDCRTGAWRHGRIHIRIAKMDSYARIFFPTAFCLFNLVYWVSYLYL
UniProt Q9Z0U4, residues 20-960: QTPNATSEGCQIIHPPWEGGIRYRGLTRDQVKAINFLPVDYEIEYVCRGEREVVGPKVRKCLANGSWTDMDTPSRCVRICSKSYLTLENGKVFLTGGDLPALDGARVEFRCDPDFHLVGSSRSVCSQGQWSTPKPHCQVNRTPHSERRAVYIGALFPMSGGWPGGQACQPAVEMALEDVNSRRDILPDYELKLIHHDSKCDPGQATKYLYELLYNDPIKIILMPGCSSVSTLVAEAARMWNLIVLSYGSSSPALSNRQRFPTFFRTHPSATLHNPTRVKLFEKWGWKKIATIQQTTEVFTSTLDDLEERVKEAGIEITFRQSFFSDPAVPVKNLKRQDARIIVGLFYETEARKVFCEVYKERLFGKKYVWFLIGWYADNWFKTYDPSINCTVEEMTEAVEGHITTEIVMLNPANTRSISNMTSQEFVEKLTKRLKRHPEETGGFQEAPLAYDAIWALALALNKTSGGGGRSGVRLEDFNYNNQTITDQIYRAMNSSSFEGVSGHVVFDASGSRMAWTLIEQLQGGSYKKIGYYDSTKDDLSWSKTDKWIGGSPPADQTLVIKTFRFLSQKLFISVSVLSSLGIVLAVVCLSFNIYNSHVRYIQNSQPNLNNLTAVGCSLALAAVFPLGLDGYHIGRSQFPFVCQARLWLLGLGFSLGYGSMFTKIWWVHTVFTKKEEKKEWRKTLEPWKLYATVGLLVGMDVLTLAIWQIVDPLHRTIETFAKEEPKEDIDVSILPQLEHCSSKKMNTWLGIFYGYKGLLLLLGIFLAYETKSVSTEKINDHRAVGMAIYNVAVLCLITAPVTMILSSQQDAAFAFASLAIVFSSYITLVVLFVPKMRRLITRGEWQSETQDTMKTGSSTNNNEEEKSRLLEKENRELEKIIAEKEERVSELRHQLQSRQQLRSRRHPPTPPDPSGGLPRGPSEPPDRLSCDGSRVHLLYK
UniProt Q9UBS5: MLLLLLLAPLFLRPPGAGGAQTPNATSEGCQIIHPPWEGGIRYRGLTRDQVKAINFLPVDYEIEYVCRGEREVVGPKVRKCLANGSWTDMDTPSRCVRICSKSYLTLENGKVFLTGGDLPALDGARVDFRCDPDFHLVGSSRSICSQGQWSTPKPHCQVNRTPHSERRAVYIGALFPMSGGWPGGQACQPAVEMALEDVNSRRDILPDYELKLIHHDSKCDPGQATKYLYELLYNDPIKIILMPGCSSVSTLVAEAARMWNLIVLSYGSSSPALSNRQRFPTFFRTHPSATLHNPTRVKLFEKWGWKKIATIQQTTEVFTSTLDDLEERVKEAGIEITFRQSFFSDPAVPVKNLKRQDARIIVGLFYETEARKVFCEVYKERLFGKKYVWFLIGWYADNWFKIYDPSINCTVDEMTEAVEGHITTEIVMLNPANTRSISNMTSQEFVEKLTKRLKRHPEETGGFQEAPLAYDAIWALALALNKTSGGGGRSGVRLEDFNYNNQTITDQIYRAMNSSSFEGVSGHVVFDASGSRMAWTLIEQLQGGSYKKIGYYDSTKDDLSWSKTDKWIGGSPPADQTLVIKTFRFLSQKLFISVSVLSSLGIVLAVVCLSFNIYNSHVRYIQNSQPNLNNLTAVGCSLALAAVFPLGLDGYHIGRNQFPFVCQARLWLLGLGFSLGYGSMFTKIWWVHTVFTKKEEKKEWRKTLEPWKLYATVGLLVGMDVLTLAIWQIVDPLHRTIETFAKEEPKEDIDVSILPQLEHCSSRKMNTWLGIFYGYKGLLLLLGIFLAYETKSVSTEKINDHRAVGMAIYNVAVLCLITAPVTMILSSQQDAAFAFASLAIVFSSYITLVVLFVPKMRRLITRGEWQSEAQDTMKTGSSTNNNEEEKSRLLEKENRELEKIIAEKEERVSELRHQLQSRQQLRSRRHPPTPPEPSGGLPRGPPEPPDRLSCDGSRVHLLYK
UniProt Q6QLM7: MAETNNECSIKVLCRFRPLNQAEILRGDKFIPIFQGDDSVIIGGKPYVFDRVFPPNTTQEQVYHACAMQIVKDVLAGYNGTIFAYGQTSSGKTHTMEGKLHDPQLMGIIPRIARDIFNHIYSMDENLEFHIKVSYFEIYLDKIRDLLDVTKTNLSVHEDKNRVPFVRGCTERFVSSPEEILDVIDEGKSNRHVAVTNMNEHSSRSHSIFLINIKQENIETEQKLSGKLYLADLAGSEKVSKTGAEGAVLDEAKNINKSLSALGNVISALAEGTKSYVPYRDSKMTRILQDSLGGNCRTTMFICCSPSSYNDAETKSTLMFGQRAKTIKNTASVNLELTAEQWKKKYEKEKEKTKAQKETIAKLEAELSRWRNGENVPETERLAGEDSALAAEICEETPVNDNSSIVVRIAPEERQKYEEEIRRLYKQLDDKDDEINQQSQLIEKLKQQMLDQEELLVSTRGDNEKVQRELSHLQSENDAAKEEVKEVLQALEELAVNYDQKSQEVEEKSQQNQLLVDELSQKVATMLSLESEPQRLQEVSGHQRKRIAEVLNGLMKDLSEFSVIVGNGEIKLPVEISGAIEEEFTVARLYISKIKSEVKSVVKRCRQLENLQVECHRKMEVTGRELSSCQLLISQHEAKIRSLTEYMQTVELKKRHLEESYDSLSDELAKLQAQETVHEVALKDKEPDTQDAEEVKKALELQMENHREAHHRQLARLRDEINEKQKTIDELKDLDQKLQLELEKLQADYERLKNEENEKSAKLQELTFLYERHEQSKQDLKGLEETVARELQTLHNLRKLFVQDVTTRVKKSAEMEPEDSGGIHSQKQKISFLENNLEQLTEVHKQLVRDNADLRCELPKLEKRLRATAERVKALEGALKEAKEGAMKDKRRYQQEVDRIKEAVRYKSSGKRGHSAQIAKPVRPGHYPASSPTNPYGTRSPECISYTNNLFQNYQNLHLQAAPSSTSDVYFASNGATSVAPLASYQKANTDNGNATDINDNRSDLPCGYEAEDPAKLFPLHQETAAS
UniProt Q2PQA9: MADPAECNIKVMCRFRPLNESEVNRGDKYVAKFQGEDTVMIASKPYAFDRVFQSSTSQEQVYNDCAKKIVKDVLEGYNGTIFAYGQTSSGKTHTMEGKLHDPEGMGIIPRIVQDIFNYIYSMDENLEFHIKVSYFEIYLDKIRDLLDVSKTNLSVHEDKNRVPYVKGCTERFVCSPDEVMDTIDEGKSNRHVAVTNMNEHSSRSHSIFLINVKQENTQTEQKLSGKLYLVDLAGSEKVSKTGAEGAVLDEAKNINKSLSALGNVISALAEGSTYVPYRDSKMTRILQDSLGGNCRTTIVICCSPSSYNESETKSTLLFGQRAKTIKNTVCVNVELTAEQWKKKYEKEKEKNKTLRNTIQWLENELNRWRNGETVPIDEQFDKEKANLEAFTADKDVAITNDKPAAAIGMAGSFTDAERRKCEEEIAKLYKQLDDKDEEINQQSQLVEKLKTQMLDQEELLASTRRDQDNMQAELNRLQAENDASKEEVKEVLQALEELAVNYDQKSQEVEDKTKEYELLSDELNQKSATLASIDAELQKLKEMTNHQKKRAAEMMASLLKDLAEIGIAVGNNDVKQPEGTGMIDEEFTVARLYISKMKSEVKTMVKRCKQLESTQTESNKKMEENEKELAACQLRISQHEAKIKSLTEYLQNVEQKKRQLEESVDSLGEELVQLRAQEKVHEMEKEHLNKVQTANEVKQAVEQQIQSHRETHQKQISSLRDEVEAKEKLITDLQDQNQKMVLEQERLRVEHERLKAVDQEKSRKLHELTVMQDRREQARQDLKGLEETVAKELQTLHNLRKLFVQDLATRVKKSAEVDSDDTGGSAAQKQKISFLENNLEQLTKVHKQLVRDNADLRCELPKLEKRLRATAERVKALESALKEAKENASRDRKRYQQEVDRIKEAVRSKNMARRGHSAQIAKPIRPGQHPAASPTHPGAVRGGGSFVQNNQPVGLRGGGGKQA
UniProt P56536: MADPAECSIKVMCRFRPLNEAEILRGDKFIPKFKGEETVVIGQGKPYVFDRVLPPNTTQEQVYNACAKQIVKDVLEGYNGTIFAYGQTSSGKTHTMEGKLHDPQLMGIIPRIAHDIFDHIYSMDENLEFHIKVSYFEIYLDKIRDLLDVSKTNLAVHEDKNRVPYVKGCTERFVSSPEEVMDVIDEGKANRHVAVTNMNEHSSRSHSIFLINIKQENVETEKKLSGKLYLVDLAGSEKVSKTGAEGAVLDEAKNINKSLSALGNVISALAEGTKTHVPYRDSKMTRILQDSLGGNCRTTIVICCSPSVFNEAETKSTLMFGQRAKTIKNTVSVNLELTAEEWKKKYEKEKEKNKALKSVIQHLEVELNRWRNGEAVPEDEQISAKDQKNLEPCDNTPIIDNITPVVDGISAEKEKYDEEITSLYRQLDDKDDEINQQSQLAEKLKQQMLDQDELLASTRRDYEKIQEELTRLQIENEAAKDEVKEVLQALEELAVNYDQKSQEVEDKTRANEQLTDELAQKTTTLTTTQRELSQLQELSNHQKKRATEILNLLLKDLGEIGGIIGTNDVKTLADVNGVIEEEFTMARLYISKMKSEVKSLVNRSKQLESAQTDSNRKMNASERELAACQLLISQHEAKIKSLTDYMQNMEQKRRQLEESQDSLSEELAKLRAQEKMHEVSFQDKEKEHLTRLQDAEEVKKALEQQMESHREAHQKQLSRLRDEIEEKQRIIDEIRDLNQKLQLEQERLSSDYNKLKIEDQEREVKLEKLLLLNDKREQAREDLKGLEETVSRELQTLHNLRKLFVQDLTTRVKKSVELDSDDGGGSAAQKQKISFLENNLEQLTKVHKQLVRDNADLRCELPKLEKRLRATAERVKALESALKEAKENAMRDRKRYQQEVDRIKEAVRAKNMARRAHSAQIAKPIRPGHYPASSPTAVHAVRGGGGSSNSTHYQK

B1: GABAB2-Flag (receptor, UniProt O75899 42-941)
chain: WARGAPRPPPSSPPLSIMGLMPLTKEVAKGSIGRGVLPAVELAIEQIRNESLLRPYFLDLRLYDTECDNAKGLKAFYDAIKYGPNHLMVFGGVCPSVTSIIAESLQGWNLVQLSFAATTPVLADKKKYPYFFRTVPSDNAVNPAILKLLKHYQWKRVGTLTQDVQRFSEVRNDLTGVLYGEDIEISDTESFSNDPCTSVKKLKGNDVRIILGQFDQNMAAKVFCCAYEENMYGSKYQWIIPGWYEPSWWEQVHTEANSSRCLRKNLLAAMEGYIGVDFEPLSSKQIKTISGKTPQQYEREYNNKRSGVGPSKFHGYAYDGIWVIAKTLQRAMETLHASSRHQRIQDFNYTDHTLGRIILNAMNETNFFGVTGQVVFRNGERMGTIKFTQFQDSREVKVGEYNAVADTLEIINDTIRFQGSEPPKDKTIILEQLRKISLPLYSILSALTILGMIMASAFLFFNIKNRNQKLIKMSSPYMNNLIILGGMLSYASIFLFGLDGSFVSEKTFETLCTVRTWILTVGYTTAFGAMFAKTWRVHAIFKNVKMKKKIIKDQKLLVIVGGMLLIDLCILICWQAVDPLRRTVEKYSMEPDPAGRDISIRPLLEHCENTHMTIWLGIVYAYKGLLMLFGCFLAWETRNVSIPALNDSKYIGMSVYNVGIMCIIGAAVSFLTRDQPNVQFCIVALVIIFCSTITLCLVFVPKLITLRTNPDAATQNRRFQFTQNQKKEDSKTSTSVTSVNQASTSRLEGLQSENHRLRMKITELDKDLEEVTMQLQDTPEKTTYIKQNHYQELNDILNLGNFTESTDGGKAILKNHLDQNPQLQWNTTEPSRTCKDPIEDINSPEHIQRRLSLQLPILHHAYLPSIGGVDASCVSPCVSPTASPRHRHVPPSFRVMVSGL

Tests used:
[1] = target: GABAAR δ subunit, endogenous in brain (rat (endogenous in brain)) (UniProt P18506); assay: co-IP; adult rat brain extracts (50 mM TRIS-HCl, 200 mM NaCl, 1 mM EDTA, 1% NP40, 1% Triton X-100, pH 7.4); antibody (anti-Shrm4 or anti-GABAAR δ) at 4 °C overnight, protein A-agarose, western blot
[2] = target: T1, GST-PDZ (Shrm4-PDZ domain, aa 1–91) (human, UniProt Q9ULL8 1-91); assay: pull-down; GST fusion proteins of the Shrm4-PDZ domain on extracts of 18DIV rat cultured hippocampal neurons or rat brain; western blot; only the target purified
T1 construct: Shrm4 (Shroom4), encoded by KIAA1202, PDZ domain, aa 1-91; in pGEX-4T-1, which should put GST at the N-terminus; source: E. coli BL21, purified using standard procedures
T1 sequence (looked up): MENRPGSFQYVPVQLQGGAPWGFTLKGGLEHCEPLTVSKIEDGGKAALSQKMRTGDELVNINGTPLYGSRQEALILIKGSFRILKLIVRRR

[3] = target: T2, mutant GST-PDZ (AA) (Shrm4-PDZ domain K26G27/AA) (human) (UniProt Q9ULL8); assay: as above
T2 sequence: T1 sequence (looked up) with K26A, G27A

[4] = target: T3, Shrm4, endogenous in rat brain (rat (endogenous in brain)) (UniProt F1LVL5); assay: co-IP; adult rat brain extracts (50 mM TRIS-HCl, 200 mM NaCl, 1 mM EDTA, 1% NP40, 1% Triton X-100, pH 7.4); antibody (anti-Shrm4 or anti-GABAAR δ) at 4 °C overnight, protein A-agarose, western blot
T3 sequence: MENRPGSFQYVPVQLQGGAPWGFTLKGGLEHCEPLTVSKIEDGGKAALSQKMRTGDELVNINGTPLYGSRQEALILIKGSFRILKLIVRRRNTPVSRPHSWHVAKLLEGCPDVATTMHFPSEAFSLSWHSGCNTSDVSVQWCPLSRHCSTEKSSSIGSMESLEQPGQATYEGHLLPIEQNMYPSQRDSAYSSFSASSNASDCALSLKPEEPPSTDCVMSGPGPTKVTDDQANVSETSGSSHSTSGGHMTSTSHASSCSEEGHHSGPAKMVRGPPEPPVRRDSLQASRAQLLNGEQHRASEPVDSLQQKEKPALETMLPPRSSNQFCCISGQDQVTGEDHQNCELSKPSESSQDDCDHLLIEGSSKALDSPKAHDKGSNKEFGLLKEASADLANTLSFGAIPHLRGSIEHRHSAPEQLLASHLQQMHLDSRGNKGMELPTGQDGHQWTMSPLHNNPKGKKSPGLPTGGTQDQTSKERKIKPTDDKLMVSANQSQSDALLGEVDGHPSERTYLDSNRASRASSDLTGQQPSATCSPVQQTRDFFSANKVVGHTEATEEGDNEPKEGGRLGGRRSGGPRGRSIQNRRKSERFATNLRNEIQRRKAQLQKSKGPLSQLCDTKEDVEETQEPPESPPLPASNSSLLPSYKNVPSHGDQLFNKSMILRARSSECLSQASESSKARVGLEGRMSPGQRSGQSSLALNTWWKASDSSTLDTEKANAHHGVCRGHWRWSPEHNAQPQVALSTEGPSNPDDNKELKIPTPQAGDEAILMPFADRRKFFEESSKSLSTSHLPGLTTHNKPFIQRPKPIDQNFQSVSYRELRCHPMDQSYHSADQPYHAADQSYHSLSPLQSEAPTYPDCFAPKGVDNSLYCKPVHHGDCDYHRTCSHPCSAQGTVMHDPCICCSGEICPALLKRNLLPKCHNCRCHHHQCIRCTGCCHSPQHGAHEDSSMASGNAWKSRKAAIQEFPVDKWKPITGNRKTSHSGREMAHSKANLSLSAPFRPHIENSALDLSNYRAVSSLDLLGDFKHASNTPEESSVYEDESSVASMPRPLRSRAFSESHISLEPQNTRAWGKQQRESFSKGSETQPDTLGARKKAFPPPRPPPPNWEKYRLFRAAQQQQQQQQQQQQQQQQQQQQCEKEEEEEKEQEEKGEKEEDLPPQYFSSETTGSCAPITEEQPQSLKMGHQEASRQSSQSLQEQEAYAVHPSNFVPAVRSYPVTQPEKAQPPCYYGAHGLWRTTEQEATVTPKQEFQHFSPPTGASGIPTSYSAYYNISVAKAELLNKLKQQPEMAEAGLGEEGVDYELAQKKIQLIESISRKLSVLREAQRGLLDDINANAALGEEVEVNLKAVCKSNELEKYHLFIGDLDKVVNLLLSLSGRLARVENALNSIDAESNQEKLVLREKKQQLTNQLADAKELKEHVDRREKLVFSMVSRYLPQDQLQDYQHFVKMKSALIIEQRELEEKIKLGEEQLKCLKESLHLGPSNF

[5] = target: T4, GFP-Shrm4 (human) (UniProt Q9ULL8); assay: co-IP; lysates of transfected HEK293 cells; antibody to the tag of Shrm4 (HA, GFP, V5) at 4 °C overnight, protein A-agarose, western blot
T4 sequence: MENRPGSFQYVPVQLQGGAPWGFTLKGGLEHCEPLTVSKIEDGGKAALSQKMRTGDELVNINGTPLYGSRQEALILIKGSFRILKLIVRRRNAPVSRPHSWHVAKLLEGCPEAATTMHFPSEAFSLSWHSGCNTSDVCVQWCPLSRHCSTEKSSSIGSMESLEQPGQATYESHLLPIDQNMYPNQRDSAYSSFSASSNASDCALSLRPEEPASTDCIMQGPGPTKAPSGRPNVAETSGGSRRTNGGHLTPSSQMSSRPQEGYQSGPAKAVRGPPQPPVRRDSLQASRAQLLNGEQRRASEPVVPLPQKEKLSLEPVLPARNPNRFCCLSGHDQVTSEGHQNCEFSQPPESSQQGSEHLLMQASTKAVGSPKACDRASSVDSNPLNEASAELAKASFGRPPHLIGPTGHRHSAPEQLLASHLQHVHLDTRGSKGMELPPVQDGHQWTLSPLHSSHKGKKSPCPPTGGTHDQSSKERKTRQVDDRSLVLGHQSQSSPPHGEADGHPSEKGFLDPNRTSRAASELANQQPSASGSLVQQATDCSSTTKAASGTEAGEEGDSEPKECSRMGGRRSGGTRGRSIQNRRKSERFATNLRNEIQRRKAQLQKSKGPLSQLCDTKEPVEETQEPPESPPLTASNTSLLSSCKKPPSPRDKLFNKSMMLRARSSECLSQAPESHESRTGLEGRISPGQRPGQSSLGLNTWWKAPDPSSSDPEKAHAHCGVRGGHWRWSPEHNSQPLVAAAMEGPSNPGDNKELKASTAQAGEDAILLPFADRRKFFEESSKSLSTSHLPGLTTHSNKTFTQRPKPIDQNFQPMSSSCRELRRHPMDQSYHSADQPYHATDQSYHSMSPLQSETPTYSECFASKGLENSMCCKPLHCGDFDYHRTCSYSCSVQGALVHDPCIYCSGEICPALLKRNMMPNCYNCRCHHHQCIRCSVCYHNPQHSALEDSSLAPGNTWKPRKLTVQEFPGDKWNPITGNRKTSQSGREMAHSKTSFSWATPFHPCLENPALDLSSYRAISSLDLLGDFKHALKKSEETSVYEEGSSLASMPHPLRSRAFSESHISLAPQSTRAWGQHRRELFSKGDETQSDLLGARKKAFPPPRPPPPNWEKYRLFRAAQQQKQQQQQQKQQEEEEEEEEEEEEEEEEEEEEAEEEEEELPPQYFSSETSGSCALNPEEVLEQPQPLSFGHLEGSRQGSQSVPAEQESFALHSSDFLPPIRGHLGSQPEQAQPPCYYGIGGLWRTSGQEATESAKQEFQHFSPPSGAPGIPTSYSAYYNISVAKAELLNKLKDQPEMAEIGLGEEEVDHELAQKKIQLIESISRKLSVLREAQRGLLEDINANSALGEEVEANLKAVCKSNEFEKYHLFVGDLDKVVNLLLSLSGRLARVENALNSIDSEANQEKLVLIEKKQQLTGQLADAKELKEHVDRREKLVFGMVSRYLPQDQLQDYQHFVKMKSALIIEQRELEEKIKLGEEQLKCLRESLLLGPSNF

[6] = target: T5, Shrm4-V5 (human) (UniProt Q9ULL8); assay: as above
T5 sequence: T4 sequence

[7] = target: T6, HA-Shrm4 (human) (UniProt Q9ULL8); assay: as above
T6 sequence: T4 sequence

Molecule | binding [4] | binding [5] | also measured
GABAAR γ2 subunit, endogenous in brain (from UniProt P18508 39-466) (receptor) | – | – | binding [1]: no binding
GABAB1 (GABABR), endogenous in rat brain, isoform not told (from UniProt Q9Z0U4 20-960) (receptor) | – | – | binding [1]: binds
GABAB1a, endogenous in rat brain and cultured hippocampal neurons (from UniProt Q9Z0U4 20-960) (receptor) | binds | – | binding [2]: binds; binding [3]: no binding
GABAB1a-Δ859–961 (from UniProt Q9UBS5 20-858) (domain or fragment) | – | no binding | –
GABAB1a-Δ870–961 (from UniProt Q9UBS5 20-869) (domain or fragment) | – | binds | –
GABAB1a-Δ922–961 (from UniProt Q9UBS5 20-921) (domain or fragment) | – | binds | –
KIF5A, endogenous in rat brain (from UniProt Q6QLM7 1-1027) | no binding | – | –
KIF5B, endogenous in rat brain (from UniProt Q2PQA9 1-963) | no binding | – | –
KIF5C, endogenous in rat brain (from UniProt P56536 1-955) | no binding | – | –
myc-tagged full-length GABAB1a (from UniProt Q9UBS5 20-961) (receptor) | – | binds | binding [6]: binds
B1 | – | – | binding [7]: no binding
